Results as given in PubChem BioAssay AID686979 (National Center for Advancing Translational Sciences (NCATS), 2013).
The whole screen tested about 420,000 compounds, of which about 50,000 (12%) were called active. The shares of active, inactive and inconclusive entries below differ from those in the screen. Calls come from the whole dose curve; as a rule, active = well fitted inhibition curve with a large enough effect; inconclusive = small, poorly fitted or top-dose-only effect; inactive = flat fitted curve, though single readings scatter. Potencies of inconclusive entries are left out as doubtful fits.

assay: qHTS for Inhibitors of human tyrosyl-DNA phosphodiesterase 1 (TDP1): qHTS in cells in presence of CPT; conditions: chicken DT40 Tdp1-/-;hTDP1 cells + 20 nM CPT, ATP luminescence, 48 h; activity change, negative = growth inhibition: at 46.2 µM (top of the series) unless noted; note: nearly all actives have a fitted effect of over 55% in size
Outline: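 Cell growth measured by CellTiter-Glo luminescence after a minimum 48 h, 37 C compound exposure with 20 nM CPT in Tdp1-knockout DT40 cells stably expressing hTDP1, seeded 400/well; qHTS titration format.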
% is set by controls: 0 for no effect and ±100 for the full control effect; potency is the fitted concentration of half-maximal effect; tags give direction and shape of the fitted curve.

Row | Structure (SMILES) | activity change, negative = growth inhibition | Potency
1 | Cc1c(C(=O)N2CCC(C)CC2)sc2ncnc(N3CCN(c4ccccc4)CC3)c12 | inactive: -5.2% | –
2 | CC1(C)CC(=O)C/C(=N/NC(=O)c2ccc(-c3ccccc3)cc2)C1 | – | inconclusive [inhibitor, single point]
3 | C(=C\c1ccccc1)/CSc1nnc(-c2ccccn2)n1Cc1ccco1 | – | active: 2.59 µM
4 | Nc1ncc(Br)cc1S(=O)(=O)NCCC(=O)N1CCN(c2ccccc2)CC1 | – | inconclusive [inhibitor, partial curve]
5 | O=C1C=C(c2ccc3[nH]ccc3c2)C[C@@H](c2ccc(Cl)cc2)C1 | – | inconclusive [inhibitor, single point]
6 | COc1ccccc1N1CCN(c2ccc3c(c2)S(=O)(=O)c2cccc(C(=O)NCC4CC4)c2C3=O)CC1 | – | active: 18.4 µM
7 | CCCn1cc(CN2CCC(Cc3cccc(F)c3)(C(=O)OCC)CC2)c(C)n1 | – | inconclusive [inhibitor, single point]
8 | COc1ccc(-c2noc(CSc3nc(N)c(-c4ccccc4)c(=O)[nH]3)n2)cc1 | inactive: -16.4% | –
9 | COc1cc(C(C2=C(O)CC(C)(C)CC2=O)C2C(=O)CC(C)(C)CC2=O)cc(OC)c1OC (stereo unspecified) | inactive: -0.211% | –
10 | Cc1ccc([N+](=O)[O-])cc1-c1ccc(/C=N/NC(=O)c2cc3c(ccc4ccccc43)o2)o1 | – | inconclusive [inhibitor, partial curve]
11 | COc1ccc(OC)c(S(=O)(=O)N2Cc3ccccc3CC2C(=O)O)c1 (stereo unspecified) | inactive: -5.11% | –
12 | CCOC(=O)Cc1csc(NC(=S)NC(=O)C(C)(C)C)n1 | inactive: 8.9% | –
13 | O=c1c(F)cn(C2CCCO2)c(=O)n1Cc1ccc(Cl)cc1 (stereo unspecified) | – | inconclusive [inhibitor, single point]
14 | CCOC(=O)[C@]12CCCC=C1N(Cc1ccc3c(c1)OCO3)C(=O)[C@H](CC(=O)N1CCOCC1)C2 | – | inconclusive [inhibitor, partial curve]
15 | CC1CCC2(CC1)NC(=O)N(CC(=O)c1ccc3c(c1)OCO3)C2=O (stereo unspecified) | inactive: 4.95% | –
16 | COc1ccc(CNCCCO)cc1OC | inconclusive: -2.25% [inhibitor] | –
17 | CC(=O)Nc1ccc(NC(=O)C(C)Sc2nnc(C3CC3)n2-c2ccccc2)cc1 (stereo unspecified) | inactive: 2.83% | –
18 | Cc1ccn2c(CNCC3OCCc4ccccc43)c(C(=O)N3CCCCCC3)nc2c1 (stereo unspecified) | – | inconclusive [inhibitor, partial curve, poor fit]
19 | COc1cccc(NC(=S)N2CCCN(Cc3ccc(F)cc3)C2)c1 | inactive: -9.61% | –
20 | CC1=C(C(=O)OCC2CCCO2)C(c2cccc(C(F)(F)F)c2)C2=C(CC(c3ccco3)CC2=O)N1 (stereo unspecified) | – | inconclusive [inhibitor, partial curve]
21 | CCCNC(=O)COC(=O)c1c2c(nc3ccccc13)CCC2 | – | inconclusive [inhibitor, partial curve, poor fit]
22 | O=C(Nc1nc2ccc(F)cc2s1)c1ccc([N+](=O)[O-])o1 | – | active: 6.51 µM
23 | Cc1cc(C)c(Nc2ncnc3c2cnn3C)c(C)c1 | – | active: 20.6 µM

Row | Structure (SMILES) | activity change, negative = growth inhibition | Potency
24 | O=C(c1ccc2ncsc2c1)N1CCN(c2nc3ccccc3s2)CC1 | – | inconclusive [inhibitor, single point]
25 | Cc1ccc(CCNC(=O)Cc2ccc(NC3=NC4CS(=O)(=O)CC4S3)cc2)cc1 (stereo unspecified) | inactive: -14.2% | –
26 | O=S(=O)(c1ccccc1)N1CCN(c2ccnc3cc(Cl)ccc23)CC1 | – | active: 16.4 µM
27 | CC(C)=CCC1=C(OCC(=O)O)C(=O)c2ccccc2C1=O | – | active: 23.1 µM
28 | Cn1c(-c2ccc(F)cc2)cnc1SCC(=O)Nc1ccccc1 | – | inconclusive [inhibitor, single point]
29 | Cc1ccc(NCc2ccccc2O)cc1 | – | inconclusive [inhibitor, single point]
30 | CCOC(=O)N1CCN(C(=O)c2ccc(Cn3c(=S)[nH]c4cc(OCC)c(OCC)cc4c3=O)cc2)CC1 | – | active: 10.3 µM
31 | O=c1c2cccc(Cl)c2nc2n1Cc1ccccc1-2 | – | inconclusive [inhibitor, single point]
32 | COc1ccc(C2(O)CCN(CCCCOc3ccccc3)CC2)cc1 | – | inconclusive [inhibitor, single point]
33 | Cc1cc(C)c2c(c1)NC(C(=O)O)C1CC=CC21 (stereo unspecified) | – | inconclusive [inhibitor, single point]
34 | CCOC(=O)c1cccc(NC(=O)C(C)N2C(=O)c3ccccc3C2=O)c1 (stereo unspecified) | inactive: 4.68% | –
35 | CC(C)(C)c1nc2ccccc2c(=O)n1N1C(=O)c2ccccc2C1=O | – | inconclusive [inhibitor, single point]
36 | Cc1ccc(C(=O)NCCNC(=O)COc2ccc(C)c(C)c2)cn1 | inactive: 7.13% | –
37 | CN(C)c1ccnc(N(Cc2ccccc2)Cc2ccccc2)c1C#N | – | inconclusive [inhibitor, partial curve, poor fit]
38 | CC1=CC2=NC(=O)/C(=C\c3ccc(-c4cccc(Cl)c4)o3)C(=N)N2O1 | – | active: 4.61 µM
39 | COc1ccc(CN2CCNC(=O)C2CC(=O)N(C)Cc2ccccn2)cc1OC (stereo unspecified) | inactive: 3.3% | –
40 | C[C@H]1CN([C@@H](C)CO)C(=O)Cc2cc(NS(C)(=O)=O)ccc2O[C@@H]1CN(C)CC1CC1 | inactive: -3.44% | –
41 | CSCC[C@H](NC(=O)c1ccc(Br)o1)c1nnc2ccccn12 | – | inconclusive [inhibitor, single point]
42 | O=C(/C=C/c1ccccc1Cl)N1CCC(c2nc3ccccc3o2)CC1 | – | inconclusive [inhibitor, single point]
43 | Cn1nc(C(F)(F)F)c2cc(C(=O)Nc3ccc(F)cc3F)sc21 | inactive: 11.1% | –
44 | CC(C)c1onc(C(=O)N2CCN(Cc3ccccc3)CC2)c1[N+](=O)[O-] | – | inconclusive [inhibitor, single point]
45 | CCOc1ccc(NC(=O)c2sc3nc4n(c(=O)c3c2C)CCC4)cc1 | – | inconclusive [inhibitor, single point]
46 | CCN(CC)S(=O)(=O)c1ccc2c(c1)nc(CCC(=O)OCC(=O)Nc1cc(Cl)cc(Cl)c1)n2C | inactive: 0.0317% | –
